This is one part of the list. At the low end of the ranking the order means little.

This assay has as its target T1, GST-Rok (full length) (UniProt O34857).
T1 sequence: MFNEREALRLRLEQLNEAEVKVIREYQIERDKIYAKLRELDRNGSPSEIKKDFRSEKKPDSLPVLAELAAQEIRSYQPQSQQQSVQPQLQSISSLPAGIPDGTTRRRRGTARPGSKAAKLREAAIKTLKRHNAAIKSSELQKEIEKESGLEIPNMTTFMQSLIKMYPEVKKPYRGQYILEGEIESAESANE
As to the kind of experiment: protein binding microarray.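 Note: rank score from −0.5 (least bound) to 0.5 (best bound).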 Particulars: Rok is a gene silencer of Bacillus subtilis; high values mean tight binding; most listed sequences are background and not binding sites; double strand, one strand shown.
The sequence CACCTACA displayed a binding signal of 0.0695 E-score.
In turn, AGGCGAGG displayed a binding signal of -0.352 E-score.
AATGACGT had a binding signal of 0.0771 E-score.
The same measure for GGTCGTCA: -0.161 E-score; for GGGCACAA: -0.0531 E-score; for CATCTGAA: -0.0979 E-score.
In the case of TACTCAGA, the binding signal was 0.161 E-score.
The same measure for TAGTCCAA: -0.00106 E-score; for AAAGTGCC: -0.299 E-score; for ATAATAAT: 0.372 E-score.
With ACGACCGC, the binding signal is 0.0315 E-score.
The same measure for TGCGAAAA: -0.00761 E-score; for ATTCCTTA: -0.127 E-score.
As for GAAGTCGC, the binding signal was -0.192 E-score.
The same measure for AAGGACTT: -0.169 E-score; for CGCACCCA: -0.0894 E-score.
The same measure for CGTCGATC: -0.13 E-score.
The same measure for CGTGGAAG: -0.188 E-score; for GGAAACCC: -0.314 E-score.
Consider CCTCAAGC, for which the binding signal is -0.224 E-score.
The same measure for ACTCCTGA: -0.121 E-score; for CAAGTCTA: -0.053 E-score.
In turn, ACGATATC displayed a binding signal of 0.252 E-score.
For the sequence AAGGCACA, the binding signal is -0.233 E-score.
Regarding GAAAAACC, the binding signal is -0.115 E-score.
On to AGTAAACG, for which the binding signal is 0.101 E-score.
On to CGTGGCGA, for which the binding signal was -0.254 E-score.
With ATCTGACC, the binding signal came out at 0.0454 E-score.
The result for ACGCAATA reads 0.202 E-score; that for GCGCGTAA, 0.136 E-score.
The same measure for AGACCCTA: -0.163 E-score; for TAAGGCGA: -0.035 E-score.
The result for ACAGCAGG reads -0.205 E-score.
The sequence AAGAGGAA gave a binding signal of -0.19 E-score.
For ACTTTCGG, the binding signal was -0.192 E-score.
The result for AGCGCGCA reads 0.0114 E-score; that for GCGGCTAA, -0.0978 E-score; that for GAGGTATA, 0.161 E-score.
The result for ACGTGGCA reads -0.184 E-score.
The result for CGACAACG reads -0.167 E-score.
CGGTTAAG had a binding signal of 0.0308 E-score.
The result for CTGCTATA reads 0.0937 E-score; that for CGACCTGA, -0.0268 E-score.
The same measure for AGACTAAC: -0.0122 E-score; for AACACTGA: -0.0136 E-score; for GTGTTGAA: 0.102 E-score.
Consider AATTTTCT, for which the binding signal worked out at 0.232 E-score.
The same measure for ATTATCTG: 0.284 E-score; for ACATGTGA: 0.0741 E-score.
The result for GCGCGTAC reads -0.0999 E-score; that for GACTACGC, 0.0227 E-score; that for AACGCACG, -0.176 E-score.
The result for AATTCTAT reads 0.31 E-score; that for AAGAATTG, 0.0616 E-score.
In turn, ACTGGGCG yielded a binding signal of -0.192 E-score.
The same measure for CCTTGCCA: -0.197 E-score; for AACAGTCA: -0.073 E-score; for AGCATTAC: 0.0579 E-score.
The result for GGCTCCGA reads -0.283 E-score; that for CGGATCCA, -0.173 E-score; that for ATTGGTAC, 0.289 E-score.
The same measure for ACCCCGGA: -0.255 E-score; for TAGCGCTA: 0.101 E-score; for CAATCATG: 0.0159 E-score.
As for AGATAAAG, the binding signal came to 0.119 E-score.
TTATCAAA had a binding signal of 0.162 E-score.
The result for GATGCTAA reads 0.0177 E-score.
Sequence CTGGACAG came in with a binding signal of -0.126 E-score.
AGGATGAG: the binding signal was -0.0521 E-score.
The result for ATGTTTGC reads 0.107 E-score; that for ATCTCTGA, -0.0215 E-score.
The sequence AATCTCGC registered a binding signal of 0.173 E-score.
The result for AAAACCGT reads -0.126 E-score; that for TGCTTAAA, 0.0507 E-score; that for GAGCTGGA, -0.00746 E-score.
The result for ACCCCGAC reads -0.0318 E-score.
Turning to ATCGCGAA, the binding signal worked out at 0.17 E-score.
The result for AGTGCCGA reads -0.184 E-score; that for AAACTCGG, 0.063 E-score.
TACGACTA yielded a binding signal of 0.159 E-score.
The result for CGATACAG reads -0.0138 E-score; that for ACGTGAGT, 0.0378 E-score; that for GAGGATGA, -0.299 E-score.
The same measure for TACCAGTA: 0.28 E-score; for GAGTTTAA: 0.0608 E-score.
The same measure for CGCCAGCA: -0.0358 E-score; for GCTCGATA: 0.0812 E-score.
On to GAGATCTC, for which the binding signal was -0.133 E-score.
The same measure for CAGGAGCC: -0.32 E-score; for CTCAACAG: -0.0757 E-score.
The same measure for TGCGCCCA: -0.193 E-score; for ATTTCAGG: -0.225 E-score; for TCTCATAA: 0.0733 E-score.
The result for ACTCCAGA reads -0.119 E-score; that for TACTAAGA, 0.229 E-score; that for GGTTAGAC, -0.117 E-score.
GGACGGTA: the binding signal came out at 0.148 E-score.
As to GATCTGAA, the binding signal is -0.0373 E-score.
The result for AGTAACCG reads -0.0688 E-score; that for AAGTCAAA, -0.0079 E-score.
The same measure for CCCCACCA: -0.354 E-score; for GATGCGTA: 0.0578 E-score.
In the case of GTTTGCAA, the binding signal turned out to be 0.127 E-score.
The same measure for AGACACCA: -0.179 E-score.
The sequence GAAATGAC showed a binding signal of -0.00813 E-score.
Sequence TAAACTTA showed a binding signal of 0.169 E-score.
The result for GTGCTGTA reads 0.168 E-score; that for ATAACAAT, 0.266 E-score.
The same measure for AAAGGTAA: 0.0103 E-score; for CCGACCGG: -0.328 E-score.
Consider GCGTAACC, for which the binding signal is -0.0842 E-score.
The same measure for CGGCGCTA: 0.0242 E-score.
GGGGAGTA gave a binding signal of -0.322 E-score.
The result for CCCGCAGA reads -0.319 E-score; that for CAGAATGA, 0.0403 E-score.
CTACCGTC showed a binding signal of 0.292 E-score.
The result for TCGCTCCA reads -0.17 E-score; that for CTCTAAAA, -0.0618 E-score; that for CGCAGTAC, -0.0857 E-score.
The same measure for GCCGGGCC: -0.387 E-score; for ATGAGCAG: 0.0195 E-score; for AGCTCACA: 0.046 E-score.
On to AGAGAAAA, for which the binding signal came out at 0.0804 E-score.
The result for CACGGGTA reads -0.0654 E-score.
The result for AAACCTTG reads -0.08 E-score.
The same measure for GAAGAGTA: 0.266 E-score.
ATGGTGAC gave a binding signal of -0.134 E-score.
The result for TAGCTCCA reads 0.0619 E-score; that for AGATCGGG, -0.152 E-score; that for ACTCGACC, -0.105 E-score.
As to CTAGCCGA, the binding signal was -0.199 E-score.
The result for CCTGGAGA reads -0.166 E-score; that for TCATTACA, 0.288 E-score; that for GGTCACAC, -0.237 E-score.
The result for CTTGAACA reads -0.0935 E-score; that for ACTGGTAC, 0.152 E-score.
The same measure for AACGGTAA: 0.258 E-score.
Turning to ACCCCTGG, the binding signal is -0.181 E-score.
On to CTCCCAAA, for which the binding signal was -0.262 E-score.
The result for GCACCGCA reads -0.101 E-score; that for GGCAGCCA, -0.303 E-score; that for AACTATGT, 0.249 E-score.
The result for CTTACATC reads 0.134 E-score.
Sequence GCCAGCAC had a binding signal of -0.161 E-score.
The result for AATTTGCT reads 0.143 E-score.
Sequence GTAAAGCA came in with a binding signal of 0.122 E-score.
The same measure for CTGAGGGC: -0.398 E-score; for CGTGAACG: -0.114 E-score.
The result for TTAAGCAA reads 0.0968 E-score; that for CATGATGG, -0.0546 E-score; that for CGTGCAAC, 0.00648 E-score.
The same measure for TACATAGA: 0.189 E-score.
Take GCACCTGC: the binding signal was -0.304 E-score.
ATGTAAGG: the binding signal is -0.097 E-score.
The result for CCCAAGTA reads 0.0557 E-score; that for AGATGCAT, 0.0869 E-score; that for GCCGAGAA, -0.0654 E-score.
Take AGCTTCCC: the binding signal is -0.227 E-score.
Take CCACGTTC: the binding signal was -0.148 E-score.
In turn, ACTGTAGG showed a binding signal of 0.21 E-score.
GGTCCAAA had a binding signal of -0.0963 E-score.
In turn, TCCGCCCA registered a binding signal of -0.309 E-score.
Turning to ATATGTTA, the binding signal was 0.395 E-score.
The result for ACCGTATA reads 0.212 E-score; that for GAGCCAAC, -0.28 E-score; that for AAATAACG, 0.161 E-score.
The result for ACACAACA reads 0.07 E-score; that for ACAAACGA, 0.0582 E-score.
Sequence CCCCTGCC had a binding signal of -0.428 E-score.
As to ACAGAGCT, the binding signal turned out to be 0.014 E-score.
Sequence GCGTCAGA registered a binding signal of -0.0609 E-score.
The result for ATAGGACC reads 0.0661 E-score.

These data come from PMC6212790.
